This is one part of the list.
How the values were obtained:
Assay in all cases: glycan array binding signal (z-score within array); higher = stronger binding
Conditions in all cases: glycan notation: IUPAC condensed, linker removed
[1] = biological target: Man(a1-2)Man(a1-2)Man(a1-3)[Man(a1-2)Man(a1-3)[Man(a1-2)Man(a1-6)]Man(a1-6)]Man(b1-4)GlcNAc(b1-4)GlcNAc
In short: (§1)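 Columns mapping to the same glycan were averaged after glycan names were converted to IUPAC-condensed notation. The data come from 3228 arrays in the Consortium for Functional Glycomics database, limited to those with an available protein sequence. Binding is reported as a within-array Z-score averaged across arrays of one protein sequence and across linkers.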

[2] = biological target: Man(a1-2)Man(a1-2)Man(a1-3)[Man(a1-2)Man(a1-6)[Man(a1-3)]Man(a1-6)]Man(b1-4)GlcNAc(b1-4)GlcNAc
In short: as §1

[3] = biological target: Man(a1-2)Man(a1-2)Man(a1-3)[Man(a1-3)[Man(a1-6)]Man(a1-6)]Man(b1-4)GlcNAc(b1-4)GlcNAc
In short: as §1

[4] = biological target: Man(a1-2)Man(a1-3)[Man(a1-2)Man(a1-6)[Man(a1-3)]Man(a1-6)]Man(b1-4)GlcNAc(b1-4)GlcNAc
In short: as §1

[5] = biological target: Man(a1-2)Man(a1-3)[Man(a1-3)[Man(a1-6)]Man(a1-6)]Man(b1-4)GlcNAc(b1-4)GlcNAc
In short: as §1

Man(a1-3)Man = biological target: Man(a1-3)Man
In short: as §1

[6] = biological target: Man(a1-3)Man(a1-6)[Man(a1-3)]Man(b1-4)GlcNAc(b1-4)GlcNAc
In short: as §1

Man(a1-3)Man(b1-4)GlcNAc = biological target: Man(a1-3)Man(b1-4)GlcNAc
In short: as §1

Man(a1-3)[Man(a1-6)]Man = biological target: Man(a1-3)[Man(a1-6)]Man
In short: as §1

[7] = biological target: Man(a1-3)[Man(a1-6)]Man(a1-6)Man(b1-4)GlcNAc(b1-4)GlcNAc
In short: as §1

[8] = biological target: Man(a1-3)[Man(a1-6)]Man(a1-6)[Man(a1-3)]Man
In short: as §1

[9] = biological target: Man(a1-3)[Man(a1-6)]Man(a1-6)[Man(a1-3)]Man(b1-4)GlcNAc(b1-4)GlcNAc
In short: as §1

[10] = biological target: Man(a1-3)[Man(a1-6)]Man(b1-4)GlcNAc(b1-4)GlcNAc
In short: as §1

[11] = biological target: Man(a1-3)[Man(a1-6)]Man(b1-4)GlcNAc(b1-4)[Fuc(a1-6)]GlcNAc
In short: as §1

Man(a1-6)Man = biological target: Man(a1-6)Man
In short: as §1

[12] = biological target: Man(a1-6)Man(b1-4)GlcNAc(b1-4)GlcNAc
In short: as §1

Man(b1-4)GlcNAc = biological target: Man(b1-4)GlcNAc
In short: as §1

[13] = biological target: Man(b1-4)Man(b1-4)Man(b1-4)Man
In short: as §1

[14] = biological target: Man(b1-4)Man(b1-4)Man(b1-4)Man(b1-4)Man
In short: as §1

[15] = biological target: Man(b1-4)Man(b1-4)Man(b1-4)Man(b1-4)Man(b1-4)Man
In short: as §1

[16] = biological target: Man6P(a1-3)Man(a1-3)Man(a1-3)Man(a1-2)Man
In short: as §1

Neu(a2-3)Gal(b1-4)Glc = biological target: Neu(a2-3)Gal(b1-4)Glc
In short: as §1

[17] = biological target: Neu(a2-3)Gal(b1-4)GlcNAc(b1-3)Gal(b1-4)[Fuc(a1-3)]GlcNAc(b1-3)Gal(b1-4)Glc
In short: as §1

[18] = biological target: Neu(a2-3)Gal(b1-4)GlcNAc6S(b1-3)Gal(b1-4)Glc
In short: as §1

[19] = biological target: Neu(a2-3)Gal(b1-4)[Fuc(a1-3)]GlcNAc(b1-3)Gal(b1-4)Glc
In short: as §1

[20] = biological target: Neu(a2-3)Gal(b1-4)[Fuc(a1-3)]GlcNAc6S(b1-3)Gal(b1-4)Glc
In short: as §1

[21] = biological target: Neu(a2-3)Gal6S(b1-4)[Fuc(a1-3)]GlcN(b1-3)Gal(b1-4)Glc
In short: as §1

Neu(a2-6)Gal(b1-4)Glc = biological target: Neu(a2-6)Gal(b1-4)Glc
In short: as §1

[22] = biological target: Neu4Ac5Ac(a2-3)Gal(b1-4)Glc
In short: as §1

Neu5Ac(a2-3)Gal = biological target: Neu5Ac(a2-3)Gal
In short: as §1

[23] = biological target: Neu5Ac(a2-3)Gal(b1-3)GalNAc(b1-4)Gal(b1-4)Glc
In short: as §1

[24] = biological target: Neu5Ac(a2-3)Gal(b1-3)GalNAc(b1-4)[Neu5Ac(a2-3)]Gal(b1-4)Glc
In short: as §1

[25] = biological target: Neu5Ac(a2-3)Gal(b1-3)GalNAc(b1-4)[Neu5Ac(a2-8)Neu5Ac(a2-3)]Gal(b1-4)Glc
In short: as §1

[26] = biological target: Neu5Ac(a2-3)Gal(b1-3)GlcNAc(b1-3)Gal(b1-4)Glc
In short: as §1

[27] = biological target: Neu5Ac(a2-3)Gal(b1-3)GlcNAc(b1-3)[Fuc(a1-3)[Gal(b1-4)]GlcNAc(b1-6)]Gal(b1-4)Glc
In short: as §1

[28] = biological target: Neu5Ac(a2-3)Gal(b1-3)[Fuc(a1-4)]GlcNAc
In short: as §1

[29] = biological target: Neu5Ac(a2-3)Gal(b1-3)[Fuc(a1-4)]GlcNAc(b1-3)Gal(b1-4)Glc
In short: as §1

[30] = biological target: Neu5Ac(a2-3)Gal(b1-3)[Neu5Ac(a2-6)]GalNAc
In short: as §1

[31] = biological target: Neu5Ac(a2-3)Gal(b1-3)[Neu5Ac(a2-6)]GlcNAc(b1-3)Gal(b1-4)Glc
In short: as §1

Neu5Ac(a2-3)Gal(b1-4)Glc = biological target: Neu5Ac(a2-3)Gal(b1-4)Glc
In short: as §1

[32] = biological target: Neu5Ac(a2-3)Gal(b1-4)GlcNAc
In short: as §1

[33] = biological target: Neu5Ac(a2-3)Gal(b1-4)GlcNAc(b1-2)Man(a1-3)[Neu5Ac(a2-3)Gal(b1-4)GlcNAc(b1-2)Man(a1-6)]Man(b1-4)GlcNAc(b1-4)[Fuc(a1-6)]GlcNAc
In short: as §1

[34] = biological target: Neu5Ac(a2-3)Gal(b1-4)GlcNAc(b1-3)Gal(b1-4)Glc
In short: as §1

[35] = biological target: Neu5Ac(a2-3)Gal(b1-4)GlcNAc6S(b1-3)Gal6S(b1-3)GlcNAc6S
In short: as §1

[36] = biological target: Neu5Ac(a2-3)Gal(b1-4)[Fuc(a1-3)]GlcNAc(b1-3)Gal
In short: as §1

Measured: glycan array binding signal (z-score)

B1: Malectin (Xenopus laevis), Q6INX3 (protein)
chain: SGLADKVIWAVNAGGESHVDVHGIHYRKDPLEGRVGRASDYGMKLPILRSNPEDQVLYQTERYNEDSFGYDIPIKEEGEYVLVLKFAEVYFAQSQQKVFDVRVNGHTVVKDLDIFDRVGHSTAHDEIIPISIKKGKLSVQGEVSTFTGKLSVEFVKGYYDNPKVCALFIMKGTADDVPMLQPHPGLE
-0.072: [10] | Neu5Ac(a2-3)Gal(b1-4)Glc
-0.066: [12]
-0.067: [26]
-0.073: [23] | [34]
-0.149: [3]
-0.225: [1]
-0.076: [4] | [5] | Man(a1-3)Man | [6] | Man(a1-3)Man(b1-4)GlcNAc | Man(a1-3)[Man(a1-6)]Man | [7] | [9] | [11] | [13] | [19] | [22] | Neu5Ac(a2-3)Gal | [24] | [25] | [27] | [28] | [29] | [30] | [31] | [33] | [36]
-0.074: [18]
-0.075: [2] | [8] | Man(b1-4)GlcNAc | [16] | [17] | [21] | [35]
-0.068: Man(a1-6)Man | [15]
-0.07: [14] | Neu(a2-3)Gal(b1-4)Glc | [20] | Neu(a2-6)Gal(b1-4)Glc | [32]

From the supplement of paper PMC8728848
